Each block holds one binder with its values, some of them ahead of it.
What was measured:
[1] = biological target: T1, soluble recombinant His-tagged GPC3 protein (R&D Systems) (human, UniProt P51654 25-559, limits assumed); assay: flow cytometry: Jurkat cells expressing the CAR stained with soluble His-tagged GPC3 (x axis 0.001 to 10 µg/mL), anti-His secondary antibody, mean fluorescence intensity; one-site fit, apparent KD
T1 construct: also called Soluble HuGPC3; soluble GPC3 protein; not shown: His tag
Experimental: Apparent binding affinity was determined by cell surface binding of soluble recombinant GPC3 protein to the GPC3-1 and GPC3-2 CARs expressed on the surface of Jurkat cells. CAR constructs were expressed on the surface of Jurkat cells using lentiviral vectors. Cells were stained with varying concentrations of recombinant His-tagged GPC3 protein (R&D systems). Bound GPC3 was visualized by staining with a fluorescently conjugated anti-His-tag secondary antibody, and cells were analyzed by flow cytometry. Binding curves were fit to a simple one site binding model to determine the apparent KD.

[2] = biological target: T1, soluble recombinant His-tagged GPC3 …; assay: flow cytometry: His-tagged soluble GPC3 titrated on Jurkat cells expressing the CAR, anti-His secondary, one-site fit (apparent KD)
[3] = biological target: T1, soluble recombinant His-tagged GPC3 …; assay: SPR (BIAcore): scFv-Fc amine-coupled to the chip, soluble GPC3 flowed at 14, 28, 57, 114 and 228 nM; 1:1 Langmuir fit, mean value
Experimental: (§1) An alternative measure of binding affinity was determined using a BIAcore surface plasmon resonance system and GPC3-1 and GPC3-2 scFv-Fc fusion proteins. Purified scFv-Fc fusion molecules of GPC3-1 and GPC3-2 were covalently coupled to an amine reactive SPR sensor chip (CMS, GE Healthcare). For GPC-1, soluble GPC3 protein (R&D Systems) was flowed over the chip surface at concentrations of 14, 28, 57, 114, and 228 nM at a rate of 30 μL/min, and the interaction was monitored. For GPC3-2, concentrations of 4, 7, 14, 28, and 57 nM were flowed at the same flow rate. Data were fit using BIAevaluation software (GE Healthcare), and a simple 1:1 Langmuir binding model, with Rₘₐₓ fit globally and kₐ, kd, and KD fit locally.

[4] = biological target: T1, soluble recombinant His-tagged GPC3 …; assay: SPR: scFv-Fc amine-coupled to the chip, soluble GPC3 in flow, 1:1 Langmuir fit
[5] = biological target: T1, soluble recombinant His-tagged GPC3 …; assay: SPR (BIAcore): scFv-Fc amine-coupled to the chip, soluble GPC3 flowed at 4, 7, 14, 28 and 57 nM; 1:1 Langmuir fit, mean value
Experimental: as §1

T1 sequence (P51654 25-559 limits assumed): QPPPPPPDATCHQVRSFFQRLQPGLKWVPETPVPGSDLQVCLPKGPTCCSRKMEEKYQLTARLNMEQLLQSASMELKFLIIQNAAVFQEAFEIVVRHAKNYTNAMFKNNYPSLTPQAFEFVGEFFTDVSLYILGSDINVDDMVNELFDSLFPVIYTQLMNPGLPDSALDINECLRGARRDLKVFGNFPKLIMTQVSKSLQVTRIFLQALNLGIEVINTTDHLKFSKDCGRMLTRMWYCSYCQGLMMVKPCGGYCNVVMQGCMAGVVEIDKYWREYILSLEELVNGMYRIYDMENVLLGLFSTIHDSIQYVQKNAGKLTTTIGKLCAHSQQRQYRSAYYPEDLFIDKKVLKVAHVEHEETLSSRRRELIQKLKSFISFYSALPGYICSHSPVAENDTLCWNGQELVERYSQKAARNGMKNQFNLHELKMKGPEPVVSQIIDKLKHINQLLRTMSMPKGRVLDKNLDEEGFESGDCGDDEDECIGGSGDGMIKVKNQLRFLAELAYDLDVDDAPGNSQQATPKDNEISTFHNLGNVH

Kd [1]: 15.2 nM
Kd [2]: ~15 nM
B1: GPC3-1 CAR (chimeric antigen receptor with the GPC3-1 scFv), expressed on cells (other)
chain: [letters of about 100 residues left out]GKRYFDYWGQGTMVTVSSGGGGSGGGGSGGGGSSYELTQPPSASGTPGQRVTISCSGGSSNIGSNTVNWFRQLPGTAPKLLVYFNNQRPSGVPDRFSGSKSGTSASLAIGGLQSDDEADYYCVAWDDSLNAPVFGGGTKVTVL
notes: Chimeric antigen receptor; also called GPC3-1 CAR constructs; not shown: IgG4P hinge, CD28 transmembrane domain and intracellular domain

Kd [3]: 73.1 nM
Kd [4]: 73 nM
B2: GPC3-1 scFv-Fc fusion protein (Fc fusion)
chain: [letters of about 100 residues left out]GKRYFDYWGQGTMVTVSSGGGGSGGGGSGGGGSSYELTQPPSASGTPGQRVTISCSGGSSNIGSNTVNWFRQLPGTAPKLLVYFNNQRPSGVPDRFSGSKSGTSASLAIGGLQSDDEADYYCVAWDDSLNAPVFGGGTKVTVL
notes: Purified scFv-Fc, covalently amine-coupled to the SPR sensor chip; also called GPC-1; anti-GPC3 scFv-Fc; not shown: Fc part

Kd [1]: 4.6 nM
Kd [2]: ~5 nM
B3: GPC3-2 CAR (chimeric antigen receptor with the GPC3-2 scFv), expressed on cells (other)
chain: [letters of about 100 residues left out]GKRYFDYWGQGTMVTVSSGGGGSGGGGSGGGGSQSVLTQPPSASGTPGQRVTISCSGGSSDIGSNTVNWYQQLPGTAPKLLIYYNNQRPSGVPDRFSGSKSGTSASLAISGLQSEDEADYYCATWDDRMYSPVFGGGTKLTVL
notes: Chimeric antigen receptor; also called GPC3-2 CAR constructs; not shown: IgG4P hinge, CD28 transmembrane domain and intracellular domain

Kd [5]: 11.1 nM
Kd [4]: 11 nM
B4: GPC3-2 scFv-Fc fusion protein (Fc fusion)
chain: [letters of about 100 residues left out]GKRYFDYWGQGTMVTVSSGGGGSGGGGSGGGGSQSVLTQPPSASGTPGQRVTISCSGGSSDIGSNTVNWYQQLPGTAPKLLIYYNNQRPSGVPDRFSGSKSGTSASLAISGLQSEDEADYYCATWDDRMYSPVFGGGTKLTVL
notes: Purified scFv-Fc, covalently amine-coupled to the SPR sensor chip; also called anti-GPC3 scFv-Fc; not shown: Fc part
